Reference: publication PMC9911399, “Two distinct binding modes provide the RNA-binding protein RbFox with extraordinary sequence specificity”
Substitutions are numbered along the chain they refer to; changes in the protein carry UniProt numbers. The list shows a part of the results.

T1: RBFOX1 RRM (Homo sapiens, UniProt Q9NWB1 109-208)
T1 sequence: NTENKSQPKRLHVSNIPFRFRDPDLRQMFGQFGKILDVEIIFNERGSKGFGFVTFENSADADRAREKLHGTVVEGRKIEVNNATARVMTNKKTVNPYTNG

B1: CCAUUAC (DNA:RNA)
RNA: GGGAGACCGGAAUUCAGAUUGUCCCCAUUACUUAAAUCCCGUCGUAGCCACCA
DNA 1: CAATCTGAATTCCGGTCTCCC
DNA 2: TGGTGGCTACGACGGGATT
B2: UUAUCAA (DNA:RNA)
RNA: B1 RNA with C25U, C26U, U29C, C31A
DNA 1: CAATCTGAATTCCGGTCTCCC
DNA 2: TGGTGGCTACGACGGGATT
B3: GCUCCGA (DNA:RNA)
RNA: B1 RNA with C25G, A27U, U28C, U29C, A30G, C31A
DNA 1: CAATCTGAATTCCGGTCTCCC
DNA 2: TGGTGGCTACGACGGGATT
B4: CUGCGGG (DNA:RNA)
RNA: B1 RNA with C26U, A27G, U28C, U29G, A30G, C31G
DNA 1: CAATCTGAATTCCGGTCTCCC
DNA 2: TGGTGGCTACGACGGGATT
B5: GCUAUGU (DNA:RNA)
RNA: B1 RNA with C25G, A27U, U28A, A30G, C31U
DNA 1: CAATCTGAATTCCGGTCTCCC
DNA 2: TGGTGGCTACGACGGGATT
B6: UUACGAG (DNA:RNA)
RNA: B1 RNA with C25U, C26U, U28C, U29G, C31G
DNA 1: CAATCTGAATTCCGGTCTCCC
DNA 2: TGGTGGCTACGACGGGATT
B7: CACGGAG (DNA:RNA)
RNA: B1 RNA with C26A, A27C, U28G, U29G, C31G
DNA 1: CAATCTGAATTCCGGTCTCCC
DNA 2: TGGTGGCTACGACGGGATT
B8: GUUAGUA (DNA:RNA)
RNA: GGGAGACCGGAAUUCAGAUUGUCCGUUAGUAUUAAAUCCCGUCGUAGCCACCA
DNA 1: CAATCTGAATTCCGGTCTCCC
DNA 2: TGGTGGCTACGACGGGATT
B9: GCUAUGC (DNA:RNA)
RNA: B1 RNA with C25G, A27U, U28A, A30G
DNA 1: CAATCTGAATTCCGGTCTCCC
DNA 2: TGGTGGCTACGACGGGATT
B10: UCCCAGG (DNA:RNA)
RNA: B1 RNA with C25U, A27C, U28C, U29A, A30G, C31G
DNA 1: CAATCTGAATTCCGGTCTCCC
DNA 2: TGGTGGCTACGACGGGATT
B11: AUGCGUG (DNA:RNA)
RNA: B8 RNA with G25A, U27G, A28C, A31G
DNA 1: CAATCTGAATTCCGGTCTCCC
DNA 2: TGGTGGCTACGACGGGATT
B12: AUAAGUA (DNA:RNA)
RNA: B8 RNA with G25A, U27A
DNA 1: CAATCTGAATTCCGGTCTCCC
DNA 2: TGGTGGCTACGACGGGATT
B13: GUAGUAA (DNA:RNA)
RNA: B1 RNA with C25G, C26U, U28G, C31A
DNA 1: CAATCTGAATTCCGGTCTCCC
DNA 2: TGGTGGCTACGACGGGATT
B14: GCUUCUC (DNA:RNA)
RNA: B1 RNA with C25G, A27U, U29C, A30U
DNA 1: CAATCTGAATTCCGGTCTCCC
DNA 2: TGGTGGCTACGACGGGATT
B15: CAAAUGC (DNA:RNA)
RNA: B1 RNA with C26A, U28A, A30G
DNA 1: CAATCTGAATTCCGGTCTCCC
DNA 2: TGGTGGCTACGACGGGATT
B16: CAACAAC (DNA:RNA)
RNA: B1 RNA with C26A, U28C, U29A
DNA 1: CAATCTGAATTCCGGTCTCCC
DNA 2: TGGTGGCTACGACGGGATT
B17: AGAGGCC (DNA:RNA)
RNA: B1 RNA with C25A, C26G, U28G, U29G, A30C
DNA 1: CAATCTGAATTCCGGTCTCCC
DNA 2: TGGTGGCTACGACGGGATT
B18: GUAAGCU (DNA:RNA)
RNA: B8 RNA with U27A, U30C, A31U
DNA 1: CAATCTGAATTCCGGTCTCCC
DNA 2: TGGTGGCTACGACGGGATT
B19: UUAACCG (DNA:RNA)
RNA: B8 RNA with G25U, U27A, G29C, U30C, A31G
DNA 1: CAATCTGAATTCCGGTCTCCC
DNA 2: TGGTGGCTACGACGGGATT
B20: AUCCAAC (DNA:RNA)
RNA: B1 RNA with C25A, C26U, A27C, U28C, U29A
DNA 1: CAATCTGAATTCCGGTCTCCC
DNA 2: TGGTGGCTACGACGGGATT
B21: GCGCCUA (DNA:RNA)
RNA: B8 RNA with U26C, U27G, A28C, G29C
DNA 1: CAATCTGAATTCCGGTCTCCC
DNA 2: TGGTGGCTACGACGGGATT
B22: UUGUUAU (DNA:RNA)
RNA: B1 RNA with C25U, C26U, A27G, C31U
DNA 1: CAATCTGAATTCCGGTCTCCC
DNA 2: TGGTGGCTACGACGGGATT
B23: AUGUUGC (DNA:RNA)
RNA: B1 RNA with C25A, C26U, A27G, A30G
DNA 1: CAATCTGAATTCCGGTCTCCC
DNA 2: TGGTGGCTACGACGGGATT
B24: UGGUACA (DNA:RNA)
RNA: B1 RNA with C25U, C26G, A27G, U29A, A30C, C31A
DNA 1: CAATCTGAATTCCGGTCTCCC
DNA 2: TGGTGGCTACGACGGGATT
B25: UGUUCAU (DNA:RNA)
RNA: B1 RNA with C25U, C26G, A27U, U29C, C31U
DNA 1: CAATCTGAATTCCGGTCTCCC
DNA 2: TGGTGGCTACGACGGGATT
B26: CAGUACG (DNA:RNA)
RNA: B1 RNA with C26A, A27G, U29A, A30C, C31G
DNA 1: CAATCTGAATTCCGGTCTCCC
DNA 2: TGGTGGCTACGACGGGATT
B27: AACGCAU (DNA:RNA)
RNA: B1 RNA with C25A, C26A, A27C, U28G, U29C, C31U
DNA 1: CAATCTGAATTCCGGTCTCCC
DNA 2: TGGTGGCTACGACGGGATT
B28: AAGUAUA (DNA:RNA)
RNA: B8 RNA with G25A, U26A, U27G, A28U, G29A
DNA 1: CAATCTGAATTCCGGTCTCCC
DNA 2: TGGTGGCTACGACGGGATT
B29: AACUUAG (DNA:RNA)
RNA: B1 RNA with C25A, C26A, A27C, C31G
DNA 1: CAATCTGAATTCCGGTCTCCC
DNA 2: TGGTGGCTACGACGGGATT
B30: AAUAGUU (DNA:RNA)
RNA: B8 RNA with G25A, U26A, A31U
DNA 1: CAATCTGAATTCCGGTCTCCC
DNA 2: TGGTGGCTACGACGGGATT
B31: UACAAUU (DNA:RNA)
RNA: B8 RNA with G25U, U26A, U27C, G29A, A31U
DNA 1: CAATCTGAATTCCGGTCTCCC
DNA 2: TGGTGGCTACGACGGGATT

Target: T1, RBFOX1 RRM
Assay: EMSA; HiTS-Eq, 1 nM pool, 10 min; buffer printed only for the single-RNA assays: 10 mM Tris pH 7.5, 150 mM NaCl, 3.4 mM EDTA, 0.001% NP-40, 30 C
Settings: tags: His6 N-terminal (pET28a); label: 5' 32P
In short: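 Relative association constants, normalised to the cognate motif, were derived by comparing read counts of each RNA species with those of the control reaction. The RNA sequenced was the free fraction, separated by 8% native PAGE after a 10 min equilibration in 50 µL of 1 nM 5′-radiolabelled RNA (7 randomized nucleotides) with increasing concentrations of purified wild-type or mutant RbFox RRM.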

Compared with B1, B2 is higher in binding signal: 0.000135 KA relative to UGCAUGU for the first, 0.00283 KA relative to UGCAUGU for the second.

First: B3
Second: B4
The binding signal of the first is higher: 0.0205 KA relative to UGCAUGU for the first, 0.013 KA relative to UGCAUGU for the second.

First: B5
Second: B6
The binding signal of the first is higher: 0.015 KA relative to UGCAUGU for the first, 0.00972 KA relative to UGCAUGU for the second.

First: B7
Second: B8
The binding signal of the first is lower: 0.00829 KA relative to UGCAUGU for the first, 0.009 KA relative to UGCAUGU for the second.

First: B9
Second: B10
The binding signal of the first is higher: 0.0178 KA relative to UGCAUGU for the first, 0.00343 KA relative to UGCAUGU for the second.

Compared with B11, B12 is lower in binding signal: 0.0226 KA relative to UGCAUGU for the first, 0.00457 KA relative to UGCAUGU for the second.

First: B13
Second: B14
The binding signal of the first is lower: 0.00703 KA relative to UGCAUGU for the first, 0.0177 KA relative to UGCAUGU for the second.

Compared with B15, B16 is lower in binding signal: 0.00466 KA relative to UGCAUGU for the first, 0.000499 KA relative to UGCAUGU for the second.

First: B17
Second: B18
The binding signal of the first is higher: 0.0118 KA relative to UGCAUGU for the first, 0.00888 KA relative to UGCAUGU for the second.

Compared with B19, B20 is lower in binding signal: 0.00433 KA relative to UGCAUGU for the first, 0.000294 KA relative to UGCAUGU for the second.

First: B21
Second: B22
The binding signal of the first is lower: 0.00779 KA relative to UGCAUGU for the first, 0.0102 KA relative to UGCAUGU for the second.

Compared with B23, B24 is lower in binding signal: 0.013 KA relative to UGCAUGU for the first, 0.00863 KA relative to UGCAUGU for the second.

Compared with B25, B26 is lower in binding signal: 0.0159 KA relative to UGCAUGU for the first, 0.0115 KA relative to UGCAUGU for the second.

First: B27
Second: B28
The binding signal of the first is higher: 0.00483 KA relative to UGCAUGU for the first, 0.000855 KA relative to UGCAUGU for the second.

First: B29
Second: B30
The binding signal of the first is higher: 0.0103 KA relative to UGCAUGU for the first, 0.00551 KA relative to UGCAUGU for the second.

In the case of B31, the binding signal is reported as 0.00044 KA relative to UGCAUGU.
